From article PMC13541613
This is a selection; strong and weak results do not stand in their true shares. At the low end of the ranking the order means little.

Molecular target: ZNF721 DBD1 (UniProt Q8TF20-2)
Experiment: HT-SELEX
Details: 20 mM HEPES pH 7, 140 mM KCl, 5 mM NaCl, 1 mM K2HPO4, 2 mM MgSO4, 100 uM EGTA, ZnSO4, 0.1% Tween20; room temperature, 1 h; high values mean tight binding; double strand, one strand shown

| Sequence | binding signal (relative 10-mer count) |
| --- | --- |
| GAAACGCTGC | 0.000183 |
| AAAACAGCAG | 0.000596 |
| AAAAAAACAG | 0.00078 |
| CAAAAAACAG | 0.000917 |
| GCCACCCCAC | 0.00472 |
| CTGTTTTTTA | 0.000596 |
| AAACAGCGTC | 0.00078 |
| ACCCACCCCT | 0.00541 |
| CAGGGTATCC | 0.000505 |
| AAGCAGCGTC | 0.000734 |
| CCACCACGCC | 0.00316 |
| CAGCATGACC | 0.000413 |
| GAAAACAGCA | 0.000688 |
| AGCAGTGTTG | 0.000596 |
| CAAAGCAGCA | 0.000642 |
| CCTCGCCCCC | 0.00592 |
| AAACAGCAGT | 0.000138 |
| AAACAGTGTC | 0.000183 |
| AAAAGCAGTG | 0.000596 |

| Sequence | binding signal (relative 10-mer count) |
| --- | --- |
| GGGCGGGGGA | 0.00482 |
| ACTGTTTTTC | 0.000917 |
| CGCACCCCCC | 0.00463 |
| CAGTGTATCC | 0.000459 |
| AACAGCGTCT | 0.000367 |
| AAACAGCATA | 0.000871 |
| ATAAAAACAG | 0.000459 |
| GAAACACTGC | 0.000596 |
| CCACACACCC | 0.00321 |
| CAGCGTTTCC | 0.000229 |
| AACAGCATAT | 0.000183 |
| CAACCACCCC | 0.00486 |
| AAACAGGGTT | 0.000138 |
| ACCCCCACAC | 0.00312 |
| AAGAAAACAG | 0.000183 |
| AAACACTGCT | 0.000505 |
| AAACAGCATC | 0.000505 |
| AGAGTACCCA | 0.000459 |
